Source: publication PMC10080908
These are yes or no findings as the source states them, for the method shown. In cells and extracts the contact can be indirect. Sequences can lack the tags named with a protein.

Chains of the proteins cited; added tags and fusions are not shown.
UniProt Q969V5: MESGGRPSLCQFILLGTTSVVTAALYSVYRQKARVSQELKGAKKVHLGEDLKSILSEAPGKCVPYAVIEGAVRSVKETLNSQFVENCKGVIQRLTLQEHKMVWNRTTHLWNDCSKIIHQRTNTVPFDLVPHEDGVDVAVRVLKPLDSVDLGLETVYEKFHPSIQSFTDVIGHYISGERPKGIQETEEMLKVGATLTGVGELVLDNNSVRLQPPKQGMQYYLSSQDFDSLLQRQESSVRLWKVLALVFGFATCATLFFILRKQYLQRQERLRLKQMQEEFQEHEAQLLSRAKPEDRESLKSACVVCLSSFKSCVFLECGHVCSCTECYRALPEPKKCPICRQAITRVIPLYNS

Molecular target: T1, GST-UBXN7-UAS (human) (UniProt O94888)
T1 sequence: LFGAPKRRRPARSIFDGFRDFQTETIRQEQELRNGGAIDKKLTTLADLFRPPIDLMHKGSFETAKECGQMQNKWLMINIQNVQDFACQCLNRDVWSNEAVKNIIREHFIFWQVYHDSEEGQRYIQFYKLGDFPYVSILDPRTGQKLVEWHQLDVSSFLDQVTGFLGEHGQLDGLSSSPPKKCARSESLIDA
Experiment: pull-down; 5 µg GST-UBXN7 constructs on Glutathione Sepharose, 1 h with HEK-293 cellular extracts (untransfected or transfected) in IP150 buffer; western blot; only the target purified

In the case of Flag-MUL1 (from UniProt Q969V5 1-352), the binding is reported as “no binding”.
